Assay results from PMC5771398, “Structural basis for assembly of the CBF3 kinetochore complex” (The EMBO Journal, 2017).
No constants are given. Whether binding was seen depends on the method and setting. For some of these results: Binding seen in cells or lysates may run through a third protein. Some results given as binding are weak or reduced against the parent protein; the word gives no strength.

Chains of the proteins cited; added tags and fusions are not shown. Lines headed by an entry give the natural chain unless they say otherwise; changes in a name come on top. A line that says so, or that is headed by a name, gives the form on record, which may keep a tag or linker.
UniProt P40969: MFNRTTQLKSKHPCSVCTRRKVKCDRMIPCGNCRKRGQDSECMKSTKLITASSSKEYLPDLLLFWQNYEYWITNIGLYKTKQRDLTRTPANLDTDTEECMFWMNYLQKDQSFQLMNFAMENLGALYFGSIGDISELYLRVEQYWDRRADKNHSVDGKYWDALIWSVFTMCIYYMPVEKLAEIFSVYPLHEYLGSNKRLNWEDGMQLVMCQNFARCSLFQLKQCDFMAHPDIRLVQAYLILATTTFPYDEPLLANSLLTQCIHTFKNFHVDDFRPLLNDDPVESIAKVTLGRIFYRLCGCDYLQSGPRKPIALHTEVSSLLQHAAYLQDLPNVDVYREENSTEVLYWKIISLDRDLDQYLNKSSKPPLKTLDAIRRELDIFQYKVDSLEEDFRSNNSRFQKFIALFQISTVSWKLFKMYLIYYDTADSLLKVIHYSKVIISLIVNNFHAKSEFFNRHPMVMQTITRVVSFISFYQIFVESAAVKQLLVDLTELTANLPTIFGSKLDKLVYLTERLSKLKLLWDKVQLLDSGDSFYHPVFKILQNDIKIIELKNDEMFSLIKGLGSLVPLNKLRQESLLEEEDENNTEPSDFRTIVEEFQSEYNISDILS
UniProt P35203: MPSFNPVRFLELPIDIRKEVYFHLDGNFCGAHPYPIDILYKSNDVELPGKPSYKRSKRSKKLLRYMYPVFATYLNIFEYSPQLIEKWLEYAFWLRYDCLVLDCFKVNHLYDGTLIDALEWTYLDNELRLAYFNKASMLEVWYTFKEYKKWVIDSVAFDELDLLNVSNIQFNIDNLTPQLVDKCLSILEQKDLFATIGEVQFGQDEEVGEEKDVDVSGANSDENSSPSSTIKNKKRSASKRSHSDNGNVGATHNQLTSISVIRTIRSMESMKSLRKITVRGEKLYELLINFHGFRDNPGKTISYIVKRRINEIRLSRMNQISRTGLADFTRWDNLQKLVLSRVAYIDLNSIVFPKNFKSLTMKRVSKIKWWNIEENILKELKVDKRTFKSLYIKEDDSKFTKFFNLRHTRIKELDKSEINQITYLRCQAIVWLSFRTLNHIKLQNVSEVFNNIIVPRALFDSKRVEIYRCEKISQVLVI
UniProt P52286: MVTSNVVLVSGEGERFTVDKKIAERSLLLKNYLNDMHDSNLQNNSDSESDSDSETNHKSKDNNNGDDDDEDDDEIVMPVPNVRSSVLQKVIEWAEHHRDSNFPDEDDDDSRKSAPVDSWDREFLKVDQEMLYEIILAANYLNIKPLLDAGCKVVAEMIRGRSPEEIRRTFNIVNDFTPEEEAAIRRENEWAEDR
Skp1Δ (P52286, form named): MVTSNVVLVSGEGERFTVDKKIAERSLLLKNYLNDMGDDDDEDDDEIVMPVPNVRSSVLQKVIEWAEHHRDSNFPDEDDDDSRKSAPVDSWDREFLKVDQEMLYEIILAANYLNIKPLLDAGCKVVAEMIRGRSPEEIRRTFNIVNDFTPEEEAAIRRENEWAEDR

Assays:
[1] = target: Cep3, triple HA-tagged with C-terminal double-Strep tag (S. cerevisiae) (UniProt P40969); experiment: pull-down; all four CBF3 subunits overexpressed in S. cerevisiae, all but Ctf13 HA-tagged; lysates on a StrepTactin column (Strep tag on Cep3), eluted with biotin; SDS-PAGE/Coomassie and anti-HA Western blot
Cep3 (S. cerevisiae) [2] = target: Cep3 (S. cerevisiae) (UniProt P40969); experiment: SEC-MALS; 200 μg of core complex on Superose 6 Increase 10/300 coupled to a Wyatt Dawn 8+ MALS system; both purified
Cep3 (S. cerevisiae) [3] = target: Cep3 (S. cerevisiae) (UniProt P40969); experiment: cryo-EM structure; single-particle cryo-EM of the purified core complex at 0.1 mg/ml, 3.6 Å overall; no lambda-phosphatase treatment; both purified
Ctf13 (S. cerevisiae) = Ctf13 (S. cerevisiae) (UniProt P35203); experiment: as above
Cep3 (S. cerevisiae) [4] = target: Cep3 (S. cerevisiae) (UniProt P40969); experiment: co-purification (Strep affinity, heparin, anion exchange, SEC); mutant core complexes co-expressed in S. cerevisiae and purified as complexes with the same procedure as the wild type; Skp1Δ core also seen by negative stain EM; both purified

binding [1]	binding (Cep3 (S. cerevisiae) [2])	binding (Cep3 (S. cerevisiae) [3])	Substance	further results
no binding			mutant HA-tagged Skp1 (N139K, Y140K) (from UniProt P52286 1-194)	
binds			wild-type HA-tagged Skp1 (from UniProt P52286 1-194)	
	binds	binds	Skp1 (from UniProt P52286 1-194)	binding (Ctf13 (S. cerevisiae)): binds
			Skp1Δ (from UniProt P52286 1-194)	binding (Cep3 (S. cerevisiae) [4]): binds
binds	binds	binds	Ctf13 (from UniProt P35203 1-478)	
binds			endogenous Skp1 (from UniProt P52286 1-194)	
